According to PubChem BioAssay AID2147 (National Center for Advancing Translational Sciences (NCATS), 2009):
The campaign covered roughly 230,000 compounds. About 3,600 (1.6%) were called active. The shares of active, inactive and inconclusive entries below differ from those in the screen. Calls follow the shape of the dose curve; as a rule, active = well fitted inhibition curve with a large enough effect (not every such curve was filed as active); inconclusive = small, poorly fitted or top-dose-only effect, or another doubt; inactive = no such curve, though single readings can be large or run the other way. Where the call is inconclusive, the potency comes from a doubtful curve fit.

Each molecule was assayed against Lysine-specific demethylase 4E (Homo sapiens) (UniProt B2RXH2) (assay: qHTS Assay for Inhibitors of Human Jumonji Domain Containing 2E (JMJD2E)). Conditions: JMJD2E catalytic domain, FDH-coupled NADH fluorescence (FDH is formaldehyde dehydrogenase); series mostly up to 57.1 µM.
Also: nearly all actives have a fitted effect of over 50% in size.
Potency is read from the fitted curve at half-maximal effect; tags tell the direction and shape of the fitted curve.

Chain of UniProt B2RXH2 (B2RXH2 whole entry, looked up, the tested form may be a part): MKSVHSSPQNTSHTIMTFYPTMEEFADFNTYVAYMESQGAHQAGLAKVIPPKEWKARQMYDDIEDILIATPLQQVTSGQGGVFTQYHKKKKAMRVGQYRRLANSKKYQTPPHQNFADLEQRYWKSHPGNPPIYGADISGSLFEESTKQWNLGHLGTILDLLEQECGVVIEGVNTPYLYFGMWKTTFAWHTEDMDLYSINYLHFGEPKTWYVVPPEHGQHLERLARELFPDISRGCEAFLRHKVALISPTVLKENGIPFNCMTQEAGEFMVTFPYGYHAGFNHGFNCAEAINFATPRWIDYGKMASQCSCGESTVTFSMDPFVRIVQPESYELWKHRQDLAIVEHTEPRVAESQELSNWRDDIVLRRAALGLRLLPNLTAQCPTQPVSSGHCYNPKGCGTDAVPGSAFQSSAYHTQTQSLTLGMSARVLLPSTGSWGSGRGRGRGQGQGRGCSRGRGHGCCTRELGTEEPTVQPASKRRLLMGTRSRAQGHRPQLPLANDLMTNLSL

Structure (SMILES)	Potency
CC(c1ccccc1)C1CC(=O)N(c2cc(Cl)ccn2)C1=O (stereo unspecified)	inactive
COC(=O)c1[nH]c2cccc(OC)c2c1NC(=O)CCN1CCN(c2ccccc2OC)CC1	inconclusive: 28.2 µM [inhibitor, partial curve]
CCN(CC)C(=O)c1sc(NC(=O)c2ccncc2)c(C(=O)OC)c1C	inactive
Cc1ccc(/C=C2\C(=O)ON=C2c2ccccc2)o1	inactive
C=CCN(C(=O)Nc1ccc2oc(C)nc2c1)c1ccccc1	inconclusive: 25.1 µM [inhibitor, partial curve]
O=C(Nc1cc(S(=O)(=O)N2CCOCC2)ccc1N1CCCC1)c1ccc2c(c1)S(=O)(=O)c1ccccc1C2=O	inactive
CC(C)Oc1cccc(-c2cc(C(=O)N3CCN(S(C)(=O)=O)CC3)c3ccccc3n2)c1	inconclusive: 25.1 µM [inhibitor, partial curve]
Cc1cc[n+](-c2[nH]c(=O)sc2/C=N/N=C(\[O-])CCn2c3ccccc3c3ccccc32)cc1	inactive
CCOC(=O)CCc1c(C)c2ccc(OCc3nn[nH]n3)cc2oc1=O	inconclusive: 25.1 µM [inhibitor, partial curve]
COCCNC(=O)NC(=O)COC(=O)c1ccc2[nH]c3c(c2c1)CCCC3	inconclusive: 39.8 µM [inhibitor, single point]
CCCCC(C=O)NC(=O)C(CC(C)C)NC(=O)OCc1ccccc1 (stereo unspecified)	inactive
CCOC(=O)c1c(NC(=O)c2ccco2)n(C2CCCCC2)c2nc3ccccc3nc12	inconclusive: 25.1 µM [inhibitor, partial curve]
Cc1ccc(-c2noc(CCC(=O)Nc3cccc(C#N)c3)n2)cc1	inactive
CC(=O)Nc1ccc(-c2csc(Nc3cccc(C)n3)n2)cc1	inactive
COc1cccc([C@@H]2Oc3ccc(Br)cc3C(=O)[C@H]2OC(=O)N[C@H]2CCCc3ccccc32)c1	inactive
CCC(Oc1ccccc1)C(=O)Nc1ccc(-c2nnc(-c3ccco3)o2)cc1 (stereo unspecified)	inconclusive: 28.2 µM [inhibitor, partial curve]
COc1ccc(CNC(=O)COC(=O)c2cc(-c3ccc(Cl)s3)nc3ccccc23)cc1	inactive
CC1CCCCN1C(=O)c1cnn2c(C(F)(F)F)cc(-c3ccco3)nc12 (stereo unspecified)	inconclusive: 31.6 µM [inhibitor, single point]
CCn1c(SCC(=O)Nc2ccccc2)nnc1-c1ccc(S(=O)(=O)N2CCOCC2)cc1	inactive
COC(=O)[C@@]1(Cc2ccccc2)[C@H]2c3cc(C(=O)N4CCCC4)n(Cc4ccc(O)c(OC)c4)c3C[C@H]2CN1C(=O)c1ccccc1	inactive
Cc1ccc(S(=O)(=O)CCc2nnc(N)s2)cc1C	inactive
C[C@H](NC(=O)Nc1cccc(C(F)(F)F)c1)C(=O)O	inconclusive: 6.31 µM [inhibitor, single point]
COc1ccc(NC(=O)Cc2coc3cc(C)c(C(C)C)cc23)cc1S(=O)(=O)N1CCOCC1	inconclusive: 39.8 µM [inhibitor, single point]
CN1CCN(C(=O)C2=C[C@H](c3csc4ccccc34)C[C@H](OCCCCO)O2)CC1	active: 22.4 µM

Structure (SMILES)	Potency
CCCCN(CCCNC(=O)C1CCN(S(=O)(=O)N2CCOCC2)CC1)c1ccccc1	inconclusive: 28.2 µM [inhibitor, partial curve]
CCSc1nc(-c2ccc(OC)cc2)ccc1C#N	inconclusive: 31.6 µM [inhibitor, partial curve]
COc1cccc(/C=N/NC(=O)c2ccc([N+](=O)[O-])cc2Cl)c1O	active: 14.1 µM
CC(=O)Nc1ccc(N/C=C(\C=O)c2nc3ccccc3o2)cc1	inconclusive: 35.5 µM [inhibitor, single point]
Cc1ccc(/C=C2\CCC3=C2OC(N)=C(C#N)C3c2ccc(C)cc2)cc1 (stereo unspecified)	inconclusive: 28.2 µM [inhibitor, single point]
NC(=Nc1ccc(N)cc1)C(N)=Nc1ccc(N)cc1	inconclusive: 8.91 µM [inhibitor, partial curve]
CCn1nnc2sc3c(c2c1=O)CCC(C)C3 (stereo unspecified)	inconclusive: 31.6 µM [inhibitor, partial curve]
Cc1cc(C)cc(N(C(C)C(=O)N2CCOCC2)S(C)(=O)=O)c1 (stereo unspecified)	inactive
CCOC(=O)N1CCN(C(=O)c2cnn3c(C(F)(F)F)cc(-c4cccs4)nc23)CC1	inconclusive: 31.6 µM [inhibitor, single point]
COc1cc(Cl)cc(C(=O)O)c1OCC(=O)O	inconclusive: 39.8 µM [inhibitor, single point]
O=C1SCCc2c1n(Cc1ccccc1)c1ccccc21	inconclusive: 39.8 µM [inhibitor, single point]
O=S(=O)(c1ccc(C(F)(F)F)cc1)N1CCCN(c2ccc(C(F)(F)F)cn2)CC1	inconclusive: 22.4 µM [inhibitor, single point]
Cc1cc(C(=O)CSc2nc(N)cc(N)n2)c(C)n1C1CC1	inconclusive: 25.1 µM [inhibitor, partial curve, poor fit]
CN1CCN(c2ccccc2NC(=O)c2cc3c(s2)-c2ccccc2OC3)CC1	inconclusive: 39.8 µM [inhibitor, single point]
CNc1nnc(-c2ccc(OC)cc2)s1	inconclusive: 35.5 µM [inhibitor, partial curve]
COc1ccc(Cc2noc(CN(C)CC3(N4CCOCC4)CCCCC3)n2)cc1OC	inactive
CCCC1=C/C(=C/c2ccc(-c3ccccc3OC)o2)C(=O)O1	inconclusive: 31.6 µM [inhibitor, partial curve]
CCOC(=O)c1cccc(Nc2nc(-c3cccnc3)nc3ccccc23)c1	inconclusive: 17.8 µM [inhibitor, partial curve]
CCCCn1nc2cc(C(=O)NCc3ccco3)ccc2c1OCC	inconclusive: 31.6 µM [inhibitor, partial curve]
Cc1cc(C)nc(NC(=O)c2ccc(Cl)cc2Cl)n1	inactive
Cc1ccc(-n2nc3c([n+]2[O-])CCc2c-3no[n+]2[O-])cc1	inactive
CCCC(=O)NC(c1ccco1)c1c(O)ccc2ccccc12 (stereo unspecified)	inconclusive: 31.6 µM [inhibitor, partial curve]
NS(=O)(=O)c1cccc2c1c([N+](=O)[O-])cc1[nH]c(=O)c(=O)[nH]c12	inactive
COc1ccc([N+](=O)[O-])cc1/C=N/NC(=O)Cc1ccccc1	inactive

Structure (SMILES)	Potency
CCOCCCNCC(=O)Nc1ccc(OC(F)(F)F)cc1	inconclusive: 35.5 µM [inhibitor, single point]
COc1ccc(-c2ccc(/C=C3/C(=N)N4C(C)=CSC4=NC3=O)o2)c([N+](=O)[O-])c1	inactive
COc1ccc2cc3cc(C(=O)NCCN4CCc5ccccc5C4)oc3nc2c1	inconclusive: 14.1 µM [inhibitor, partial curve]
O=C(Nc1nsc(-c2ccccc2)n1)c1cccs1	inconclusive: 28.2 µM [inhibitor, partial curve]
Cc1nn2c(-c3cccc(NC(=O)c4ccco4)c3)nnc2c2ccccc12	inconclusive: 35.5 µM [inhibitor, single point]
CCCC(c1nnnn1CC(=O)OCC)N(Cc1cc2c(C)cc(C)cc2[nH]c1=O)C1CCCC1 (stereo unspecified)	inconclusive: 28.2 µM [inhibitor, single point]
O=C(CN1C(=O)NC2(CCc3ccccc32)C1=O)c1ccc2c(c1)OCCO2 (stereo unspecified)	inactive
CCOc1ccc2nc(NC(=O)CN3CCC(n4nnc5cc(C(F)(F)F)ccc54)CC3)sc2c1	inconclusive: 25.1 µM [inhibitor, single point]
O=S(=O)(c1cccc(NC(=S)Nc2ccc(Br)cc2Cl)c1)N1CCOCC1	inactive
CC1=NN(c2ccc(N)cc2)C(=O)C1	inconclusive: 12.6 µM [inhibitor, partial curve]
COc1ccc(NC(=O)c2cn(CCC#N)nc2-c2cc3ccccc3o2)cc1	inconclusive: 35.5 µM [inhibitor, single point]
Cc1ccc(NC(=S)c2nc3ccccc3s2)cc1	inactive
CC1(C)CC(=O)C2=C(C1)OC(N)=C(C#N)C2c1ccsc1 (stereo unspecified)	inactive
CCN(CC)S(=O)(=O)c1ccc2oc(C(=O)N3CCc4ccccc4C3)c(C)c2c1	inactive
COC(=O)c1cc(N=C(N)N=C(N)N)cc(C(=O)OC)c1	inconclusive: 39.8 µM [inhibitor, single point]
CC/C=C/C(=O)N1CC2(CC(c3cccc(NC(=O)CCCCC)c3)=NO2)C[C@H]1C(N)=O (stereo partly specified)	inconclusive: 22.4 µM [inhibitor, single point]
O=C1C(=O)N(CCN2CCOCC2)C(c2ccncc2)/C1=C(/O)c1ccc2c(c1)OCO2 (stereo unspecified)	inconclusive: 39.8 µM [inhibitor, single point]
Cc1ccc(-c2csc3nc4ccc(C(=O)NCCO)cc4c(=O)n23)cc1	inconclusive: 28.2 µM [inhibitor, partial curve]
COc1cc(C=C(c2nc3ccccc3s2)c2nc3ccccc3s2)cc(OC)c1O	inactive
Fc1cccc(F)c1/C=C/c1ccc2ccccc2n1	inconclusive: 35.5 µM [inhibitor, single point]
COc1ccc(OCC(=O)O/N=C(\N)Cc2cccs2)cc1	inactive
S=C(NCCc1ccccc1)NCC(c1ccco1)N1CCCCC1 (stereo unspecified)	inconclusive: 39.8 µM [inhibitor, single point]
Cc1ccc2nc(-c3ccccc3)cc(C(=O)N3CCc4ccccc4C3)c2c1	inconclusive: 39.8 µM [inhibitor, single point]
